Test results from publication PMC4336329 (PLoS ONE, 2015).
Out of some 310,000 compounds screened, about 14,000 (4.5%) showed an effect of 50% or more. Effects have a minus sign here. The list shows a part of the results.

What follows are compounds tested against human ether-à-go-go-related gene (hERG) potassium channel (human, UniProt Q12809) (assay: primary screen, population patch clamp on CHO cells stably expressing hERG).
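Note: peak tail current of the secondary pulse compared with the same well before compound.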

human ether-à-go-go-related gene (hERG) potassium channel, sequence (Q12809 whole entry, looked up): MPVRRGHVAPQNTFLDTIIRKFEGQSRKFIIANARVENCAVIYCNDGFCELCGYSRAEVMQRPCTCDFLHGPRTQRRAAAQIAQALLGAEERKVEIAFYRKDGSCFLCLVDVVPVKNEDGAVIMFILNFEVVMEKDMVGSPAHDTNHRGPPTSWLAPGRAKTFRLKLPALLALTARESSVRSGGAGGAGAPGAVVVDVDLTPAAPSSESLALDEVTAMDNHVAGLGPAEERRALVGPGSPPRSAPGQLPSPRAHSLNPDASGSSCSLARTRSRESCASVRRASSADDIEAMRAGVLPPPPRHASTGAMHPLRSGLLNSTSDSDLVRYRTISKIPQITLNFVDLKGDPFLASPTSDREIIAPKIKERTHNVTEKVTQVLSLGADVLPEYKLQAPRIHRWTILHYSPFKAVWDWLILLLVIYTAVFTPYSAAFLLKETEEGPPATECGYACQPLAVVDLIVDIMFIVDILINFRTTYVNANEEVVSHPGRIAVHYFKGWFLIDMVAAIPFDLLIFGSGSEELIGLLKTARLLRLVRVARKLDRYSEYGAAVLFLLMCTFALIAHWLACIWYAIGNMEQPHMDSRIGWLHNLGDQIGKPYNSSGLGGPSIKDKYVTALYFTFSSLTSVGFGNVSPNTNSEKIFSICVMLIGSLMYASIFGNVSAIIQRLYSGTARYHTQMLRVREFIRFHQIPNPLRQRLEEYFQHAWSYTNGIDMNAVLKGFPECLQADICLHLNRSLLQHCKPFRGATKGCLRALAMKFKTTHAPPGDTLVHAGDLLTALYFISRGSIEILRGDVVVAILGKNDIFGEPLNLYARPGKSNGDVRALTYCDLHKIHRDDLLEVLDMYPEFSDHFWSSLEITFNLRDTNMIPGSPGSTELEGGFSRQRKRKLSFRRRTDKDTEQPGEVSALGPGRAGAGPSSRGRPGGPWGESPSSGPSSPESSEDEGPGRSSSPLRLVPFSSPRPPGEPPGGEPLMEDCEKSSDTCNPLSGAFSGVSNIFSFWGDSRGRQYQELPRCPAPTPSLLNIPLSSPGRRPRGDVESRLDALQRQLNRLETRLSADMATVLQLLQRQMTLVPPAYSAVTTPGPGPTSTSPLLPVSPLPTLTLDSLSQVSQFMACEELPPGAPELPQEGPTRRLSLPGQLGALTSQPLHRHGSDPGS

| SMILES | hERG current change (%, negative = inhibition) at 10uM [%] |
| --- | --- |
| CCOc1nnc(C)c2c(C)n(-c3ccc(Cl)cc3)nc12 | -10.1 |
| O=C(c1ccc(F)c(S(=O)(=O)N2CCOCC2)c1)N(c1ccccc1)c1ccccn1 | 1.35 |
| Cc1ccc(-c2nn(C(C)(C)C)c3ncnc(NS(=O)(=O)c4ccc([N+](=O)[O-])cc4)c23)cc1 | -37.1 |
| COc1ccccc1-n1nnnc1SC(C)C(=O)NC1CCCC1 (centres unmarked) | 6.08 |
| CCOc1ccc2nc(SCC(=O)Nc3ccc(S(=O)(=O)N4CCCC4)cc3)c(C)cc2c1 | 2.2 |
| CC1(C)Cc2ccccc2-c2nc(-c3ccccc3)oc(=O)c21 | 2.64 |
| Cc1ccc2nc3c(cc(C(=O)NCCc4ccccc4)c(=N)n3CCN3CCOCC3)c(=O)n2c1 | -76.7 |
| CCC(NC(=O)COc1cc2c(c3oc(=O)c(C)c(C)c13)CCC(C)(C)O2)C(=O)O (centres unmarked) | 6.16 |
| Cc1cccc(-c2nc3ccccc3c(=O)n2NC(=O)c2ccc([N+](=O)[O-])c(C)c2)c1 | 14.5 |
| COC(=O)c1ccc(NC(=O)CSC2=NCCN2)cc1.Cl | -5.04 |
| CC(C)[C@H](NC(=O)c1ccco1)C(=O)OCC(=O)c1ccc2c(c1)NC(=O)CO2 | -15.9 |
| NS(=O)(=O)c1ccc(NC(=O)C2(c3ccccc3)CCCC2)cc1 | 10.3 |
| Cc1ccc(NC(=O)CSCC(=O)O)c(C)c1 | 19 |
| O=C(/C=C/c1ccccc1Cl)NCc1ccccc1 | 10.2 |
| CC(C)=CCN1CCN(Cc2ccc(C#CC(C)(C)O)s2)CC1CCO (centres unmarked) | -1.88 |
| CCOc1ccccc1N1CCN(C(=O)c2cc3cc(OC)ccc3[nH]2)CC1 | -3.66 |
| Cc1cc(C)c(C#N)c(Oc2ccc(O)cc2)n1 | -2.22 |
| N#Cc1cccc(-n2nnnc2-c2ccc3c(c2)OCO3)c1 | 2.69 |
| CN(CC(=O)Nc1ccccc1Cl)C(=O)COC(=O)C1CCN(c2ccc(C(F)(F)F)cn2)CC1 | -29.8 |
| COc1ccc(OC)c(CCNC(=O)c2sc3nc4n(c(=O)c3c2C)CCC4)c1 | -22.8 |
| CCOc1ccc(CN2CCNC(=O)C2CC(=O)OC)cc1 (centres unmarked) | 19.4 |
| CCCCOC(=O)c1cc(Cl)c(O)c(OC)c1 | 9.65 |

| SMILES | hERG current change (%, negative = inhibition) at 10uM [%] |
| --- | --- |
| O=C(c1noc2c1CCCC2)N1CCOCC1 | 11.2 |
| CC(C)c1ccc(OCC(=O)N(Cc2ccco2)C2CCS(=O)(=O)C2)cc1 (centres unmarked) | -79.4 |
| O=C(CN1CCOCC1)Nc1ccc(Cl)cn1 | 20.6 |
| Cc1ccc(CN2CC(C(=O)Nc3cccc(C)n3)CC2=O)cc1 (centres unmarked) | -13.1 |
| O=C(Nc1ccc(Cl)c([N+](=O)[O-])c1)C(NCCCO)c1ccccc1 (centres unmarked) | -36.7 |
| N#CC1=C(N)Oc2cc(N)ccc2C1c1ccc(F)cc1F (centres unmarked) | -22.9 |
| Cl.N=c1sccn1CC(=O)Nc1ccc([N+](=O)[O-])cc1Cl | -40.6 |
| COc1ccc(CCNC(=O)C2CC3Cn4c(nc5ccccc54)C3N2c2ccccc2)cc1 (centres unmarked) | -7.57 |
| Cc1cc(C)n(C(=O)CCCCCCCCC(=O)n2nc(C)cc2C)n1 | 13.6 |
| COc1ccc(CNC(=O)c2cc(-c3cc(C)ccc3O)n[nH]2)cc1 | 34.1 |
| Cc1cccc(-c2cc3nc4c(c(N5CCOCC5)n3n2)CCCC4)c1 | -12.2 |
| Cc1ccc(S(=O)(=O)N2CCOCC2)cc1NC(=O)c1cc(-c2ccccn2)nc2ccccc12 | -46.7 |
| O=C(Nc1cccc(Cl)c1)Nn1cnnc1 | 17 |
| CCC(CC)C(=O)Nc1cc(NC(=O)C(CC)CC)cc(C(=O)O)c1 | 17.1 |
| Cc1cc(C)c(C(=O)CSc2n[nH]c(=O)n2C2CC2)cc1C | -9.54 |
| O=C1C=C(Nc2ccc(Cl)cc2)CC(c2ccccc2)C1 (centres unmarked) | -8.07 |
| CCOC(=O)C(C)Oc1c(C(=O)OC)sc2ncccc12 (centres unmarked) | 0.757 |
| CCSc1nnc([C@@H]2CCCN2C(=O)OC(C)(C)C)o1 | 7.93 |
| CC(=O)c1cccc(S(=O)(=O)NC2CCCCCC2)c1 | -2.98 |
| O=C(COC(=O)CCc1nc2ccccc2c(=O)[nH]1)NC1CCS(=O)(=O)C1 (centres unmarked) | 7.91 |
| CCc1nnc(NC(=O)c2cc(-c3ccco3)nc3ccccc23)s1 | 12.8 |
| CC(=O)c1nn(-c2ccc(Br)cc2)cc1C(=O)c1ccco1 | -22.5 |
